# In PMC6919601, “Identification of Plasmodium dipeptidyl aminopeptidase allosteric inhibitors by high throughput screening” (PLoS ONE, 2019):
# Screen size: about 110,000 compounds; about 230 (0.21%) showed an effect of 50% or more. This is one part of the list.
# Target: DPAP1 (Plasmodium falciparum, UniProt Q8IIJ9)
# Experiment: primary screen, percent inhibition; read by cleavage of a fluorogenic dipeptide substrate; higher = more effect of the substance
# Set-up: species or system P. falciparum D10 trophozoite lysates; single well
# 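Also: 30 min substrate incubation versus DMSO and 10 µM JCP410 controls.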
# Sequence of DPAP1 (Q8IIJ9 whole entry, looked up): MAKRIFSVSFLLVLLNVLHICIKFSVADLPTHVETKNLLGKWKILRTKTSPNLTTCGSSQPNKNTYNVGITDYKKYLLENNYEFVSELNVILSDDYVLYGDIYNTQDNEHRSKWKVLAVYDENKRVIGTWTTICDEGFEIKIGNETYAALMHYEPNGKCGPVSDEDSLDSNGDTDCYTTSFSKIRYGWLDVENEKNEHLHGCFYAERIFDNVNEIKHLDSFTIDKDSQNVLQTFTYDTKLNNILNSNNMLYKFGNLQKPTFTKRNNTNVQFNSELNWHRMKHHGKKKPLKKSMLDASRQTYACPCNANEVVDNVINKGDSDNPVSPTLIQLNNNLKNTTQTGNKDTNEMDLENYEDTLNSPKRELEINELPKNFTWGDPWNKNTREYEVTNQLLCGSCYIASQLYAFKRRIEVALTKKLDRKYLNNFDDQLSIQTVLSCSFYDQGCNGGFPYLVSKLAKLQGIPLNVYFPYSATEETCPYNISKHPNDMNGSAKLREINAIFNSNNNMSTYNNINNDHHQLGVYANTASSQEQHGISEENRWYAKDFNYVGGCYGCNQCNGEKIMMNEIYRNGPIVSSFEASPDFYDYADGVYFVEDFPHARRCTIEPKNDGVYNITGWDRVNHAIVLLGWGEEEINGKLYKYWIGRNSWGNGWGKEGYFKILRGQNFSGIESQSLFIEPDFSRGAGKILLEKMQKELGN
row,SMILES,% Inhibition @ 10 uM [%]
1,O=C(NCc1ccccc1)N1CCN(C(c2ccc(F)cc2)c2ccc(F)cc2)CC1,-2.85
2,CCOC(=O)c1c(C)c(-c2ccccc2)n(CC(=O)N2CCN(c3ccccn3)CC2)c1C,4.69
3,COc1cccc(Cn2c(=O)n(Cc3ccc(F)cc3)c(=O)c3cccnc32)c1,-9.16
4,CC(CCC(=O)O)C1CC[C@H]2C3CCC4CC(=O)CCC4(C)[C@H]3CC(=O)C12C (stereo partly shown),0.884
5,COC(=O)C(O)(c1ccc(O)cc1O)C(F)(F)F (stereo not shown),-2.66
6,COc1cc(C(=O)N(C(C)C)C(C)C)cc(OC)c1OC,-4.5
7,Cc1c(CCC#N)c(NCCCN(C)C)n2c(nc3ccccc32)c1C#N,-1.33
8,COc1cccc(S(=O)(=O)Nc2ccc(C(=O)N3CCc4cc(OC)c(OC)cc4C3)cc2)c1,-0.984
9,Cn1cc(CC(=O)NCC2(c3ccccc3)CCCC2)c2ccccc21,0.128
10,O=c1c(C(c2ccccc2)c2c(O)sc3ccccc3c2=O)c(O)sc2ccccc12,18
11,O=C(O)c1ccccc1Nc1cccc(Cl)c1,2.49
12,O=C(C1=C(O)C(=O)N(CCc2ccccc2)C1c1ccc2c(c1)OCO2)c1ccccc1 (stereo not shown),0.528
13,COc1ccc(C2C=C(c3ccc(Cl)cc3)Nc3nc(NC(=O)c4cccs4)nn32)cc1 (stereo not shown),1.62
14,CCOC(=O)C1=CN(C)C=C(C(=O)OCC)C1c1ccccc1OCC,3.45
15,Cc1ccc(-c2nc(CSCC(=O)N3CCC4(CC3)OCCO4)c(C)o2)cc1,2.37
16,CCOC(=O)N1CCC(NC(=O)CS(=O)Cc2nc(-c3ccc(C)cc3)oc2C)CC1 (stereo not shown),-2.85
17,O=C(CCCOc1ccc(Cl)cc1Cl)N1CCOCC1,4.47
18,O=C(NCc1ccccc1)c1ccc(-c2ccccc2)s1,-2.17
19,CCOC(=O)CN(C)Cc1c[nH]c2ccccc12,-5.42
20,CCc1c(C)sc(NC(=O)Cn2nc(C)c(Br)c2C)c1C(N)=O,0.907
21,CO/C(O)=C1\C(C)=NC2=C(C(=O)c3ccccc32)C1c1ccc(Br)cc1 (stereo not shown),-5.01
22,Cc1cc(C)c2c3c(sc2n1)C(c1cccc(F)c1)C(C#N)=C(N)O3 (stereo not shown),-2.07
23,Cc1ccc(N2CC(C(=O)Nc3c(C)cccc3C)CC2=O)cc1Cl (stereo not shown),1.02
24,O=c1c2ccccc2nc(/C=C/c2cccc(Br)c2)n1-c1ccccc1,3
25,Cc1ccc2c(c1)-c1c(cnn1CC(=O)N(C)Cc1ccco1)CO2,0.695

row,SMILES,% Inhibition @ 10 uM [%]
1,COc1cccc(=O)c2c(C)n(CC(=O)c3ccccc3)c(C)c12,-0.958
2,CCOC(=O)c1cnn(-c2ccccc2)c1NC(=O)c1ccccc1,9.09
3,Cc1ccc(C23CC4CC(CC(O)(C4)C2)C3)cc1[N+](=O)[O-],-2.55
4,CC(C)c1ccc(/C=C2/C(=N)N3C(=NC2=O)SN=C3S(C)(=O)=O)cc1,1.85
5,c1ccc(CCN2CCC(N3CCSCC3)CC2)cc1,1.57
6,CCc1ccc(/C=C(\C#N)c2nc3ccccc3[nH]2)cc1,-3.78
7,CCOc1ccc(-c2cc(C)n3nc(C(=O)Nc4ccc(C(C)=O)cc4)cc3n2)cc1,2.01
8,Cc1nnc(NC(=O)CSc2nnc(CNC(=O)COc3ccccc3)n2-c2ccccc2)s1,5.32
9,COc1ccc(-c2c(C(F)(F)F)oc3c(CN4CCCC4)c(O)ccc3c2=O)cc1OC,-1.98
10,CCCN1CC(C)C(O)(c2ccccc2)CC1C (stereo not shown),5.04
11,Clc1ccc(N2CCN(Cc3ccccc3Br)CC2)cc1,4.73
12,CC(C)CCNC(=O)c1cc(-c2ccccn2)nc2ccc(S(=O)(=O)N3CCC(C)CC3)cc12,-2.72
13,Cc1ccc(CN(C(=O)COc2ccc(Cl)cc2)C2CCS(=O)(=O)C2)o1 (stereo not shown),-1.11
14,COC(=O)c1sc2nc(-c3ccccc3)ccc2c1N,-4.94
15,O=[N+]([O-])c1ccc(Cl)cc1Sc1nc2ccccc2[nH]1,-0.273
16,Nc1ccc(C2CCCc3nonc32)c2nonc12 (stereo not shown),-5.68
17,COc1ccc(OCCSc2nc(N)cc(O)n2)cc1,0.00477
18,COc1ccccc1N1CCN(C(=O)CN(c2ccccc2Cl)S(C)(=O)=O)CC1,4.83
19,NS(=O)(=O)c1ccc(CCNC(=O)C2CCN(S(=O)(=O)c3c[nH]cn3)CC2)cc1,2.9
20,CN(C)CCN1C(=O)C(O)=C(C(=O)c2ccccc2)C1c1ccc(Br)cc1 (stereo not shown),-14.5
21,CC(NC(=O)CCCCn1c(=O)[nH]c2ccsc2c1=O)c1ccccc1 (stereo not shown),-3.27
22,O=C1CC(N2CCCC(CO)C2)C(=O)N1c1ccc(Br)cc1 (stereo not shown),0.993
23,C=CCOc1ccc2c(C(F)(F)F)cc(=O)oc2c1C,-0.45
24,O=C(NCc1ccco1)c1ccc(CS(=O)c2ccc(Br)cc2)o1 (stereo not shown),-3.32
25,CC1CCN(C(=O)NCc2noc3ccccc23)CC1,1.13

row,SMILES,% Inhibition @ 10 uM [%]
1,COc1ccc(OCC(O)Cn2c(NC3CCCCC3)nc3c2c(=O)n(C)c(=O)n3C)cc1 (stereo not shown),-7.23
2,COc1ccc2[nH]c(C)c(CCNCc3cccnc3)c2c1,-4.35
3,Cc1ccc(OC(C)C(=O)Nc2cccnc2)cc1 (stereo not shown),4.11
4,O=C(COc1ccc(S(=O)(=O)N2CCCC2)cc1)N1CCN(c2cccc(Cl)c2)CC1,-3.41
5,O=C1c2ccc(F)cc2C(=O)N1Cc1cccnc1,2.7
6,O=C(CCc1ccc(S(=O)(=O)NCc2ccccc2)cc1)Nc1ccccc1,-3.45
7,O=[N+]([O-])c1ccc(CN2CCN(c3ccc(F)cc3)CC2)cc1,-1.86
8,CNc1nc(OCC(F)(F)F)nc(OCC(F)(F)F)n1,-2.51
9,COc1cc(OC)c(C2C3=C(O)CC(C)(C)CC3=NC(C)=C2C(=O)N2CCOCC2)cc1OC (stereo not shown),0.851
10,O=C(Nc1ccc(S(=O)(=O)N2CCOCC2)cc1)c1ccc(Cl)cc1,0.528
11,O=C(CN1C(=O)S/C(=C\c2c(F)cccc2Cl)C1=O)Nc1ccccc1,4.18
12,Cc1cccc(-c2noc(CCC(=O)NC(C)(C)C)n2)c1,-0.45
13,CCOC(=O)c1nnn(-c2ccccc2OC)c1C(=O)OCC,-1.58
14,COCc1nc(O)c2c(n1)-c1ccccc1CC21CCCCC1,-0.294
15,CC12CC(NC(=O)N1Cc1ccccc1)c1cc(Br)ccc1O2 (stereo not shown),2.17
16,CC1(C)CC(NC2CC(C)(C)NC(C)(C)C2)CC(C)(C)N1,5.28
17,O=C(Nc1ccccc1)Nc1cc2ccccc2cc1NC(=O)Nc1ccccc1,-0.687
18,Cc1ccc2cc(CCC#N)c(Cl)nc2c1,0.895
19,c1cncc(-c2nn[nH]n2)c1,-1.14
20,CC(C)C[C@H](NC(=O)c1ccccc1CSc1ccccc1)C(=O)NCC#N,-1.41
21,COC(=O)c1ccc(/C=c2\sc3ncnn3c2=O)cc1,3.54
22,CN(C)CCCN1C(=O)C(O)=C(C(=O)c2ccccc2)C1c1ccccn1 (stereo not shown),3.79
23,Cc1cccc(-c2noc(CNC(=O)C(C)Oc3ccc(Br)cc3)n2)c1 (stereo not shown),1.94
24,O=C(Nc1ncc(CN2CCOCC2)s1)C12CC3CC(CC(C3)C1)C2,3.66
25,Cc1ccc(C(=O)C2=C(O)C(=O)N(CCN3CCOCC3)C2c2cccc(F)c2)cc1 (stereo not shown),-0.872

row,SMILES,% Inhibition @ 10 uM [%]
1,COc1ccccc1NC(=O)C1=C(C)N=C2CC(C)(C)CC(O)=C2C1c1ccccc1OC (stereo not shown),-4.12
2,CCOc1ccc(N(CC(=O)Nc2cccc(Cl)c2C)S(C)(=O)=O)cc1,-0.473
3,CCOc1cc2c(cc1/C=C1/SC(=O)N(CC(=O)N3CCN(c4ccccc4)CC3)C1=O)OCO2,0.189
4,O=[N+]([O-])c1ccc(N2CCN(Cc3c[nH]c4ccccc34)CC2)cc1,0.605
5,COc1ccc(/C=c2/sc3n(c2=O)C(c2ccc(N(C)C)cc2)C(C(C)=O)=C(C)N=3)c(OC)c1 (stereo not shown),-0.48
6,NS(=O)(=O)c1cccc(C(=O)NCc2ccccc2)c1,-5.47
7,O=C(CCCSc1nc(O)c2c3c(sc2n1)CCCC3)NCCCO,-4.76
8,Fc1ccccc1CSc1ccc(-c2cccs2)nn1,5.09
9,O=c1c2c(-c3ccc([N+](=O)[O-])cc3)csc2nc2n1CCCCC2,11.7
10,CCOC(=O)C1=C(C)N=C2SCC(=O)N2C1c1ccc(F)cc1 (stereo not shown),-2.91
11,N#CC1=C(N)Oc2cc(N)ccc2C1c1cccc(O)c1 (stereo not shown),-4.11
12,c1ccc(-c2noc(-c3cccc4ccccc34)n2)nc1,-0.436
13,CCC/N=c1\c(NC(=O)c2cccs2)c(O)oc2ccccc12,1.12
14,Cc1cc(N2C(N)=C(C#N)C(c3cc(CN4CCOCC4)c(C)s3)C3=C2CCCC3=O)no1 (stereo not shown),-2.79
15,Cc1cccc(NC(=O)CC2SC(Nc3cc(C)cc(C)c3)=NC2=O)c1 (stereo not shown),-0.992
16,CCN(CCCNC1=NS(=O)(=O)C(c2ccc(C(C)C)cc2)=C1C)Cc1ccccc1,0.623
17,COc1ccc(N2Cc3ccc(OC)c(OC)c3C2=O)cc1,-5.62
18,COC(=O)C1=C(C)N(C)C(C)=C(C(=O)OC)C1c1cc(Br)ccc1OC,17
19,O=[N+]([O-])c1ccccc1CN1CCN(c2ccccc2)CC1,-0.197
20,O=C1CC(NC2CCCC2)C(=O)N1c1ccc(Cl)cc1 (stereo not shown),-4.65
21,CC1C[C@@H](C(=O)NCC#N)N(C(=O)OCc2ccccc2)C1 (stereo partly shown),-1.5
22,CC(=O)c1cccc(NC(=O)CN(c2cccc(F)c2)S(C)(=O)=O)c1,3.58
